Reference: PubChem BioAssay AID1768 (National Center for Advancing Translational Sciences (NCATS), 2009)
Several values for one entry are separate records, joined by “and”; a condition that tells them apart may be missing. Identical values can stand only once. Hit rate of the full screen: of about 270,000 compounds, about 620 (0.23%) were called active. Calls come from the whole dose curve; as a rule, active = well fitted inhibition curve with a large enough effect in the polarisation, with a control signal flat (not every such curve was filed as active); inconclusive = small, poorly fitted or top-dose-only effect, or effect the other way, or a change in a side signal; inactive = no such curve, though single readings can be large or run the other way; the % refers to the polarisation. Inconclusive means that the source gave no clear call. A potency beside an inconclusive call is a rough fit, not a confirmed value. A note “side channel” means that the fit belongs to a control or component signal, not to the main read-out.

The compounds below were run against Menin (Homo sapiens) (UniProt O00255) (assay: qHTS Assay for Inhibitors Targeting the Menin-MLL Interaction in MLL Related Leukemias: Competition With Texas Red Labeled MLL-derived Mutant Peptide). Conditions: fluorescence polarization; series mostly up to 61.6 µM.
UniProt O00255, sequence (O00255 whole entry, looked up): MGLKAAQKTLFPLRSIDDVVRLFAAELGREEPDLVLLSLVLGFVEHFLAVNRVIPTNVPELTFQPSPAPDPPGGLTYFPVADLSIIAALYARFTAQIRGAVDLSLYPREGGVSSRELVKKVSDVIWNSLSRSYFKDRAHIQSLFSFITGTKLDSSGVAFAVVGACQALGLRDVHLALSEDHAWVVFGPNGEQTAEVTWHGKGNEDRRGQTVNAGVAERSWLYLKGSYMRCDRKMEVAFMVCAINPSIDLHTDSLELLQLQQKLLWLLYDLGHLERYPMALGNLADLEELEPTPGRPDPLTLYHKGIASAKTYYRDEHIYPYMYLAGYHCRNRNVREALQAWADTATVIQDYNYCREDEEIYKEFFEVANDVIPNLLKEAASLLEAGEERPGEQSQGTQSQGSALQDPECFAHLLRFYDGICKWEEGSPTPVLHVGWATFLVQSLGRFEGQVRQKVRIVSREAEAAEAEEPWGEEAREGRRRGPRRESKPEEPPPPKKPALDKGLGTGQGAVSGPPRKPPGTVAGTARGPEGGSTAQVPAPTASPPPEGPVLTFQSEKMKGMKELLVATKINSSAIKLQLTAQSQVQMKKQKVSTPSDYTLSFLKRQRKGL
Potency is the fitted concentration of half-maximal effect; tags give direction and shape of the fitted curve or compound fluorescence and quenching.

Potency, inconclusive:
Cc1cccc(Nc2ccccc2C(=O)O)c1C 35.5 µM [quencher, side channel, single point], COc1cccc(OCCn2cccc2/C=C2/C(=N)N3OC(C)=CC3=NC2=O)c1 15.8 µM [quencher, side channel, partial curve], COc1cccc(CN2CCN(C(=O)c3cccc(OC)c3)CC2)c1 35.5 µM [inhibitor, single point], Cc1cc(N=NC(=O)c2ccccc2O)c2ccccc2c1O 17.8 µM [quencher, side channel, partial curve], CCC(C)n1ncn(-c2ccc(N3CCN(c4ccc(OCC5COC(Cn6cncn6)(c6ccc(Cl)cc6Cl)O5)cc4)CC3)cc2)c1=O (centres undefined) 631 nM [fluorescent, side channel, full curve] and 3.16 µM [inhibitor, single point], CCN(CC)c1ccc(/C=N/NC(=O)Nc2ccccc2)cc1 25.1 µM [quencher, side channel, single point], CN(Cc1ccccc1)C(=O)COC(=O)c1cc(-c2ccc(Cl)s2)nc2ccccc12 10 µM [quencher, side channel, partial curve], COc1cccc(-n2c(SCC(N)=O)nnc2-c2ccco2)c1 10 µM [quencher, side channel, partial curve], COc1ccc(C(=O)Oc2coc(CSc3nnc(NC(=O)c4cccs4)s3)cc2=O)cc1 31.6 µM [quencher, side channel, single point], COc1ccccc1N1CCN(C(=O)c2ccoc2C)CC1 39.8 µM [inhibitor, single point], O=C(CN1CCN(C(c2ccccc2)c2ccccc2)CC1)NCc1ccccc1 3.16 µM [fluorescent, side channel, full curve], COCCn1c(C)cc(C2=NNC(=Nc3ccc(Cl)cc3Cl)SC2)c1C 10 µM [quencher, side channel, partial curve], O=C(NCc1ccccc1)c1cc(S(=O)(=O)N2CCCCC2)ccc1N1CCOCC1 8.91 µM [fluorescent, side channel, full curve, poor fit], CCC(C)(C)NC(=O)C(c1ccc(OC)cc1)N(C(=O)CCC(=O)Nc1cc(C)on1)C1CC1 (centres undefined) 17.8 µM [inhibitor, single point]
